Source: PubChem BioAssay AID1508642 (National Center for Advancing Translational Sciences (NCATS), 2021)
About 200 (0.47%) of roughly 43,000 compounds were called active. Another 12% or so got no clear call; they are omitted. The call rests on the fitted dose curve; in most records, active means well fitted cell-killing curve with a large enough effect; inconclusive means small, poorly fitted or top-dose-only effect, or effect the other way; inactive means flat fitted curve, though single readings scatter. This is one part of the list.

assay: Cell viability qHTS assay in S16 Pmp22-F2sN cells; details: S16 Pmp22-F2sN Schwann cells (luciferase reporters placed in the Pmp22 gene) viability, CellTiter-Glo, 24 h; series mostly up to 57.5 µM; activity change, negative = cytotoxicity: at the top concentration; further: nearly all actives have a fitted effect of over 65% in size
How it was run: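 Rat S16 Schwann reporter line, 24 h treatment with library compounds delivered at 23 nL per well. Cell viability by CellTiter-Glo luminescence.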
On the % scale 0 is the no-effect control and ±100 the full control effect.

| Structure (SMILES) | activity change, negative = cytotoxicity |
| --- | --- |
| Cc1[nH]c2c(C)cccc2c1CCNC(=O)c1cc2ccccc2oc1=O | inactive: 5.81% |
| CCc1cccc(C)c1Nc1c(-c2cccc(O)c2)nc2sccn12 | inactive: 8.1% |
| O=S(=O)(c1cccc(Cl)c1)c1nnn2c1nc(NC1CCCC1)c1sccc12 | inactive: -0.771% |
| COC(=O)c1ccc(NC(=O)C2CCN(S(=O)(=O)c3ccc4c(c3)CCCN4C(C)=O)CC2)cc1 | inactive: -4.88% |
| CCc1nnc2n1N(C(C)=O)C(c1ccc(C(C)(C)C)cc1)=C(C(C)=O)S2 | inactive: -20.9% |
| Cc1nc(N2CCCC2)ncc1C(=O)NCc1ccccc1Cl | inactive: -0.684% |
| CCc1ccc(CNC(=O)c2cc3c(s2)-c2ccccc2OC3)cc1 | inactive: 13.3% |
| COc1cc(NC(=O)CSc2nc3nc(C)c(Cc4ccccc4)c(C)n3n2)cc(OC)c1OC | inactive: -0.0267% |
| O=C(Cn1ncc2c3ccccc3n(Cc3ccc(Cl)cc3)c2c1=O)NC1CCCCCC1 | inactive: 3.48% |
| CCc1ccc(CNC(=O)c2cnc3sc(N(CC)CC)nn3c2=O)cc1 | inactive: -8.75% |
| COCCCNC(=O)Cn1c(=O)n(-c2ccc(Cl)cc2)c(=O)c2c3c(sc21)CCCCC3 | inactive: 2.81% |
| COc1ccc(CCNC(=O)CN2C(=O)COc3ccc(S(=O)(=O)N4CCCCCC4)cc32)cc1OC | inactive: 2.54% |
| CCOC(=O)C1CCCN(S(=O)(=O)c2ccc3c(c2)N(C)C(=O)CC(=O)N3C)C1 (stereo unspecified) | inactive: 2.47% |
| CC(C)c1cnc2c(c1SCC(=O)Nc1cccc([N+](=O)[O-])c1)c(=O)n(C)c(=O)n2C | inactive: 3.9% |
| COCCCNc1ncnc2c1nnn2C | inactive: -10.6% |
| CCn1c(SCC(=O)Nc2ccc(C)c(C)c2)nnc1-c1nonc1NC(C)=O | inactive: -0.215% |
| CCCCC(CC)Cn1c(Oc2ccccc2)nc2c1c(=O)n(C)c(=O)n2C (stereo unspecified) | inactive: 3.46% |
| Cc1ccc(Cl)cc1N1CCN(S(=O)(=O)c2ccc3c(c2)CC(=O)N3C)CC1 | inactive: -1.1% |
| CCOc1ccc(-n2c(=O)c3sc4ccccc4c3n(Cc3ccc(F)cc3)c2=O)cc1 | inactive: -3.66% |
| Cc1ccc(NC(=O)c2ccc(CN3CC(=O)N4CCCCC4C3=O)cc2)cc1C (stereo unspecified) | inactive: -6.51% |
| CCc1ccccc1NC(=O)C(=O)NCCc1sc(-c2cccc(C)c2)nc1C | inactive: 1.29% |
| COc1ccc(OC)c(-n2cnc3cc(C(=O)NCCc4ccccc4)ccc32)c1 | inactive: 4.73% |
| CCOc1ccccc1N(CC)C(=O)c1cc2c(=O)n(CC)c3ccccc3c2s1 | inactive: 10.7% |
| CC1=C(C(=O)Nc2ccc(C)cc2C)C(c2ccc[nH]2)n2ncnc2N1 (stereo unspecified) | inactive: 0.769% |

| Structure (SMILES) | activity change, negative = cytotoxicity |
| --- | --- |
| CSc1nnc2c(n1)OC(c1cccc(O)c1Cl)Nc1ccccc1-2 (stereo unspecified) | inactive: -1.23% |
| N#Cc1cc2c(=O)n3ccccc3nc2n(-c2nnc(SCc3ccccc3F)s2)c1=O | inactive: 21.3% |
| Cc1ccc(OCC(=O)Nc2ccccc2C(=O)OCc2cc(=O)n3c(C)csc3n2)cc1 | inactive: -8.98% |
| CC(C)OC(=O)c1c(NC(=O)c2cc3nc(-c4ccccc4)cc(C(F)(F)F)n3n2)sc2c1CCCC2 | inactive: -2.03% |
| Cc1ccc(-c2nnc3ccccc3c2C(=O)Nc2cccc(C(F)(F)F)c2)cc1 | inactive: 6.67% |
| Cc1cc(C)cc(NS(=O)(=O)c2ccc3[nH]cc(C(=O)NCc4ccco4)c(=O)c3c2)c1 | inactive: -24.4% |
| O=C(/C=C/c1ccccc1)Nc1nc(-c2cccs2)ns1 | inactive: -11.6% |
| CC(=O)c1ccc(NC(=O)CN2C(=O)CCc3cc(S(=O)(=O)N4CCC(C)CC4)ccc32)cc1 | inactive: 16% |
| COc1cccc(NC(=O)CCc2nnc3n(CC(C)C)c(=O)c4ccccc4n23)c1 | inactive: 24.6% |
| N#C/C(=C\c1ccccc1F)c1nc2ccccc2c(=O)[nH]1 | inactive: -2.64% |
| CCC(O)c1nc2ccccc2n1CCOc1cc(C)cc(C)c1 (stereo unspecified) | inactive: -27.9% |
| O=C(Nc1ccccc1F)c1oc2ccccc2c1NC(=O)C12CC3CC(CC(C3)C1)C2 | inactive: 13.6% |
| O=C(Nc1ccc(Cl)c(C(F)(F)F)c1)c1cc2nc(-c3ccc4c(c3)OCO4)cc(C(F)(F)F)n2n1 | inactive: 16.9% |
| COc1cc(NC(=O)C2CCN(c3nnc(C)c4c(C)n(-c5ccccc5)nc34)CC2)cc(OC)c1 | inactive: -10.4% |
| CCN(C(=O)CSc1nc2ccccc2n1Cc1ccccc1C#N)c1ccccc1 | inactive: 3.1% |
| Cc1ccc(-c2nc(S(=O)(=O)c3ccc(C)cc3)c(SCC(=O)c3ccccc3)o2)cc1 | inactive: -14% |
| Cc1cccc(C)c1NC(=O)Cn1c(=O)n(Cc2ccccc2Cl)c(=O)c2cccnc21 | inactive: 7.53% |
| COc1ccc(-n2nc(C(=O)Nc3ccc(C)cn3)c3c4ccccc4n(C)c3c2=O)cc1Cl | inactive: 22.4% |
| CCOC(=O)c1ccc(NC(=O)CSc2nnc(-c3ccncc3)n2-c2ccccc2)cc1 | inactive: 6.53% |
| CCOc1ccc(CNC(=O)c2cnc3c(C)cccn3c2=O)cc1 | inactive: -0.594% |
| CCOC(=O)c1ccccc1NC(=O)c1cnn(-c2ccc(OC)cc2)c1C1CCN(C(=O)OC(C)(C)C)CC1 | inactive: 14.4% |
| Cc1ccc2c(c1)c(=O)c1ccccc1n2CCCC(=O)Nc1ccc(Cl)cc1C | inactive: 20.4% |
| O=C(NCc1nc2ccccc2n1Cc1ccccc1Cl)c1ccccc1 | inactive: -0.788% |
| Cc1ccc(NC(=O)CCCn2c(=O)c3cccn3c3ccccc32)cc1Cl | inactive: 9.36% |

| Structure (SMILES) | activity change, negative = cytotoxicity |
| --- | --- |
| COc1ccc(-c2nn(-c3ccc(F)cc3)c3c2cnc2ccc(F)cc23)cc1OC | inactive: -11.3% |
| O=C1CN(C(=O)COc2ccccc2)C(c2ccc(F)cc2)c2cc(Br)ccc2N1 (stereo unspecified) | inactive: -28.7% |
| COC(=O)c1cc2sc(Cl)cc2n1CC(=O)Nc1cc(OC)cc(OC)c1 | inactive: -4.04% |
| COc1ccc(OCC(=O)Nc2ccc(Cl)c(-c3nc4ncccc4o3)c2)cc1 | inactive: 3.78% |
| CCN(CCCNC(=O)c1cc(Nc2ccc(OC)cc2)nc2ccccc12)c1cccc(C)c1 | inactive: 9.4% |
| COc1cccc(CNC(=O)c2ccc3c(c2)N(Cc2ccc(F)cc2Cl)C(=O)c2ccccc2S3)c1 | inactive: 1.52% |
| Cc1ccccc1CN1C(=O)c2ccccc2Sc2ccc(C(=O)NCc3ccccc3)cc21 | inactive: -0.347% |
| Cc1ccc(Cl)cc1NC(=O)Nc1cn(CC(C)C)c(=O)c2ccccc12 | inactive: -4.87% |
| O=C(Nc1ccccc1F)c1nc(SCc2ccccc2F)ncc1Cl | inactive: -1.58% |
| CCOc1ccc(CCNC(=O)Cn2ccc3cc(S(=O)(=O)N4CCCCC4)ccc32)cc1 | inactive: -22.3% |
| CN(Cc1ccccc1)c1ccc(-c2nc(-c3ccccc3)no2)cc1[N+](=O)[O-] | inactive: 7.24% |
| C=Cc1ccc(Cn2c(C)c(CNCc3ccc(SC)cc3)c(C(=O)O)c2C)cc1 | inactive: 8.54% |
| CCc1cccc(NC(=O)c2cc3c(s2)-c2ccccc2OC3)c1 | inactive: 17.7% |
| Cc1cc(C)c(NC(=O)C(=O)NCC(c2cccnc2)N2CCN(c3ccccc3F)CC2)c(C)c1 (stereo unspecified) | inactive: -10.6% |
| O=C(CN1C(=O)c2cccc3cccc1c23)Nc1cccc(F)c1 | inactive: 19% |
| CC(=O)Nc1cccc(NC(=O)CSc2nccn2C2CCCC2)c1 | inactive: -15.7% |
| CCC(Sc1ncc(S(=O)(=O)c2ccc(Cl)cc2)c(=O)[nH]1)C(=O)Nc1ccc(OC)cc1 (stereo unspecified) | inactive: -9.76% |
| Cc1ccc2[nH]c(=O)c3cc(C(=O)N(CCCOC(C)C)Cc4ccco4)sc3c2c1 | inactive: -21.9% |
| COc1ccc(Cl)cc1NC(=O)CSc1nnc2[nH]c(=O)cc(-c3ccccc3)n12 | inactive: 1.98% |
| COC(=O)c1ccc2c(=O)n3nc(Nc4cc(OC)ccc4OC)sc3nc2c1 | inactive: 0.371% |
| Cc1ccccc1NC(=O)CSC1=Nc2ccccc2C2=NC(Cc3ccccc3)C(=O)N12 (stereo unspecified) | inactive: -22.2% |
| Cc1ccc(OCc2nc(C#N)c(NCCc3ccccc3)o2)cc1 | inactive: 2% |
| COc1ccc(NC(=O)C2CCN(C(=O)c3sc4nc[nH]c(=O)c4c3C)CC2)cc1Cl | inactive: 3.37% |
| CN(CC(=O)Nc1ccc(Br)cc1)S(=O)(=O)c1cccc2nsnc12 | inactive: -0.134% |

| Structure (SMILES) | activity change, negative = cytotoxicity |
| --- | --- |
| CCOC(=O)C1CCN(c2nc3ccccc3nc2Cl)CC1 | inactive: 0.468% |
| COc1ccccc1NC(=O)CSc1nc2c(oc3ccccc32)c(=O)n1-c1ccccc1F | inactive: 5.01% |
| CN1C(=O)Cc2cc(S(=O)(=O)CCC(=O)N3CCN(c4ccc(Cl)cc4)CC3)ccc21 | inactive: 3.64% |
| Cc1cc2oc(C(=O)N(Cc3ccc(N(C)C)cc3)CC3CCCO3)c(C)c2cc1Cl (stereo unspecified) | inactive: -3.4% |
| Cc1ccc(Cl)cc1-n1ncc2c(N3CCC(C(N)=O)CC3)ncnc21 | inactive: 2.94% |
| O=C(CCn1c(=O)c2cccn2c2cccnc21)N1CCN(c2ccc(Cl)cc2)CC1 | inactive: 11.2% |
| CNc1oc(/C=C/c2cc(OC)c(OC)c(OC)c2)nc1C#N | inactive: -6.79% |
| Cc1ccc(S(=O)(=O)N2CCCc3cc(NC(=O)c4c(F)cccc4F)ccc32)cc1 | inactive: -26.8% |
| Cc1nn(CC(=O)NCc2ccccc2Br)c(=O)c2cc3occc3n12 | inactive: 4.59% |
| CCCCNC(=O)[C@@H](c1ccccc1)N1Cc2ccccc2C1=O | inactive: 2.37% |
| CCc1ccc(C2=C(C)C(N3CCC(C(=O)NCc4ccc(C)o4)CC3)=NS2(=O)=O)cc1 | inactive: 1.42% |
| Cc1ccccc1C(=O)Nc1ccc(C(=O)OCc2cc(=O)n3c4c(sc3n2)CCCC4)cc1 | inactive: -11.5% |
| Cc1ccc(-n2c(=O)c3ccc(C(=O)NCc4ccccc4Cl)cc3n(CC(N)=O)c2=O)cc1 | inactive: 1.83% |
| Cc1ccc(C(=O)Nc2ccc(F)cc2)cc1S(=O)(=O)N1CCOCC1 | inactive: -20% |
| CCOc1ccccc1NC(=O)CSc1nccn1Cc1ccc(F)cc1 | inactive: 9.24% |
| O=C(OCC1CCCO1)c1ccc2c(c1)N(Cc1ccccc1F)C(=O)c1ccccc1S2(=O)=O (stereo unspecified) | inactive: 19.3% |
| O=C(CCCn1c(=O)c2cccn2c2cccnc21)Nc1ccccc1Br | inactive: 19.6% |
| O=c1oc2ccc3ccccc3c2cc1-c1nnc(Nc2cccc(F)c2)s1 | inactive: -1.98% |
| Cc1cccc(C)c1Nc1c(-c2ccccc2O)nc2ncccn12 | inactive: -10.5% |
| Cc1ccccc1CNC(=O)c1ccc2c(c1)N(Cc1ccccc1)CCS2 | inactive: -2.66% |
| CCCCn1c(=O)c2oc3ccccc3c2n(CC(=O)Nc2ccccc2OC)c1=O | inactive: 26.6% |
| CCOC(=O)c1c(NC(=O)/C=C/c2ccc(OCC)cc2)sc2c1CCC2 | inactive: 1.54% |
| Cc1ccc(CNC(=O)Cn2cc(C(=O)c3ccc(Cl)cc3)c(=O)c3ccc(C)nc32)cc1 | inactive: -20.3% |
| Cc1ccc(NC(CNS(=O)(=O)c2ccc(Cl)cc2)c2ccccc2)cc1 (stereo unspecified) | inactive: -16.1% |
